Patent US9695132B2, “Heteroaryl compounds and uses thereof” (Celgene CAR LLC, priority 2013, dated 2017)

Target: FGFR4 (Homo sapiens (Human), UniProt P22455)
Assay: Protein mass modification assay (MALDI, intact FGFR4)
Assay type: binding
Details: method a: FGFR4 intact protein from SignalChem; 10-fold excess of compound, 60 min

COc1cc(OC)cc(N2Cc3cnc(Nc4ccccc4)nc3N(C)C2=O)c1 [Compound I-237]
MS FGFR4 (mass modification): G (mass modification ≦30%)

COc1cc(OC)c(Cl)c(N2Cc3cnc(Nc4ccccc4)nc3N(C)C2=O)c1Cl [Compound I-238]
MS FGFR4 (mass modification): G (mass modification ≦30%)
